Data: patent US10299477B2 (priority 2015, dated 2019)

What was measured:
Assay type in all cases: in vivo
Alternaia brassicicola = assay: Test Example C: Alternaria sooty spot on cabbage; settings: for Test C control value: Alternaria sooty spot on cabbage
Description: [Test Example C] Alternaria Sooty Spot on Cabbage
Seeds of a test plant (cabbage variety: Shikidori) were planted followed by cultivating until the cotyledons extended.

Puccinia recondita = assay: Test Example E: Brown rust on wheat; settings: for Test E control value: Brown rust on wheat
Description: [Test Example E] Brown Rust on Wheat

Botrytis cinerea = assay: Test Example B: Gray mold on tomato; settings: for Test B control value: Gray mold on tomato
Description: [Test Example B] Gray Mold on Tomato
Seeds of a test plant (tomato variety: Oogata Fukuju) were planted followed by cultivating until three to five first leaves (true leaves) appeared.

[1] = test system: Blumeria graminis f sp. hordei; assay: Test Example D: Powdery mildew on barley; settings: for Test D control value: Powdery mildew on barley
Description: [Test Example D] Powdery Mildew on Barley
After the sprayed dilutions were dried, conidia of Blumeria graminis f sp. hordei were inoculated to the plants by shaking off.

[2] = 250 ppm spray, preventive, control value class

Row | SMILES | Test C control value (Alternaia brassicicola) | Test E control value (Puccinia recondita) | Test B control value (Botrytis cinerea) | Test D control value [1] | Test C control value (Alternaria sooty spot on cabbage) (Alternaia brassicicola; [2]) | Test E control value (brown rust on wheat) (Puccinia recondita; [2]) | Test B control value (gray mold on tomato) (Botrytis cinerea; [2]) | Test D control value (powdery mildew on barley) [1, 2]
1 | CCn1c(-c2c(F)cccc2F)c(-c2ccccc2F)ccc1=O [Compound 140] | H (H shows more than 50% of control values) | H (H shows more than 50% of control values) | H (H shows more than 50% of control values) | H (H shows more than 50% of control values) | – | – | – | –
2 | CCn1c(-c2c(F)cc(Cl)cc2F)c(-c2cc(OC)cc(OC)c2)ccc1=O [Compound 119] | H (H shows more than 50% of control values) | H (H shows more than 50% of control values) | H (H shows more than 50% of control values) | H (H shows more than 50% of control values) | – | – | – | –
3 | CCN1C(=O)CCC(c2ccc(F)cc2Cl)=C1c1c(F)cc(OC)cc1F [Compound 33] | H (H shows more than 50% of control values) | H (H shows more than 50% of control values) | H (H shows more than 50% of control values) | H (H shows more than 50% of control values) | – | – | – | –
4 | Cn1c(-c2ncc(Cl)cc2Cl)c(-c2ccc(F)cc2)ccc1=O [Compound 23] | H (H shows more than 50% of control values) | H (H shows more than 50% of control values) | H (H shows more than 50% of control values) | H (H shows more than 50% of control values) | – | – | – | –
5 | CCn1c(-c2ncc(OC)cc2Cl)c(-c2ccccc2)ccc1=O [Compound 11] | H (H shows more than 50% of control values) | H (H shows more than 50% of control values) | H (H shows more than 50% of control values) | H (H shows more than 50% of control values) | – | – | – | –
6 | CCn1c(-c2c(F)cc(OC)cc2F)c(-c2ccc(F)cc2Cl)cc(Br)c1=O [Compound 34] | H (H shows more than 50% of control values) | H (H shows more than 50% of control values) | H (H shows more than 50% of control values) | H (H shows more than 50% of control values) | – | – | – | –
7 | COc1cc(OC)c(Cl)c(-c2ccc(=O)n(C)c2-c2ccccc2F)c1 [Compound 229] | – | – | – | – | H (H shows more than 50% of control values) | H (H shows more than 50% of control values) | H (H shows more than 50% of control values) | L (L shows 50% or less of control values)
8 | CCn1c(-c2c(F)cccc2F)c(-c2cccc(OC)c2Cl)ccc1=O [Compound 65] | H (H shows more than 50% of control values) | H (H shows more than 50% of control values) | H (H shows more than 50% of control values) | H (H shows more than 50% of control values) | – | – | – | –
9 | COc1ccc(Cl)c(-c2cc(Cl)c(=O)n(C)c2-c2c(F)cccc2F)c1 [Compound 60] | H (H shows more than 50% of control values) | H (H shows more than 50% of control values) | H (H shows more than 50% of control values) | H (H shows more than 50% of control values) | – | – | – | –
10 | CCn1c(-c2ncc(OC)cc2Cl)c(-c2c(F)cccc2F)ccc1=O [Compound 8] | H (H shows more than 50% of control values) | H (H shows more than 50% of control values) | H (H shows more than 50% of control values) | H (H shows more than 50% of control values) | – | – | – | –
11 | COc1cc(OC)cc(C2=C(c3c(F)cccc3F)N(C)C(=O)CC2)c1 [Compound 27] | H (H shows more than 50% of control values) | H (H shows more than 50% of control values) | L (L shows 50% or less of control values) | L (L shows 50% or less of control values) | – | – | – | –
12 | COc1ccc(Cl)cc1-c1cc(Cl)c(=O)n(C)c1-c1c(F)cccc1F [Compound 138] | L (L shows 50% or less of control values) | H (H shows more than 50% of control values) | L (L shows 50% or less of control values) | H (H shows more than 50% of control values) | – | – | – | –
13 | COc1cc(OC)c(Br)c(-c2ccc(=O)n(C)c2-c2c(F)cc(F)cc2F)c1 [Compound 135] | H (H shows more than 50% of control values) | H (H shows more than 50% of control values) | H (H shows more than 50% of control values) | H (H shows more than 50% of control values) | – | – | – | –
14 | COc1cc(F)c(-c2c(-c3ccc(F)cc3Cl)ccc(=O)n2C)c(F)c1 [Compound 37] | H (H shows more than 50% of control values) | H (H shows more than 50% of control values) | H (H shows more than 50% of control values) | H (H shows more than 50% of control values) | – | – | – | –
15 | CCn1c(-c2c(F)cccc2F)c(-c2c(Cl)c(OC)cc(OC)c2Br)cc(Br)c1=O [Compound 70] | L (L shows 50% or less of control values) | L (L shows 50% or less of control values) | H (H shows more than 50% of control values) | L (L shows 50% or less of control values) | – | – | – | –
16 | CN1C(=O)CCC(c2c(F)cccc2F)=C1c1ncc(Cl)cc1Cl [Compound 3] | L (L shows 50% or less of control values) | H (H shows more than 50% of control values) | L (L shows 50% or less of control values) | H (H shows more than 50% of control values) | – | – | – | –
17 | CCn1c(-c2c(F)cccc2F)c(-c2c(F)ccc(OC)c2F)cc(Cl)c1=O [Compound 106] | H (H shows more than 50% of control values) | H (H shows more than 50% of control values) | H (H shows more than 50% of control values) | H (H shows more than 50% of control values) | – | – | – | –
18 | CCn1c(-c2c(F)cccc2F)c(-c2c(Cl)c(OC)cc(OC)c2Cl)ccc1=O [Compound 68] | H (H shows more than 50% of control values) | H (H shows more than 50% of control values) | H (H shows more than 50% of control values) | H (H shows more than 50% of control values) | – | – | – | –
19 | CCN1C(=O)CCC(c2ccc(F)cc2Cl)=C1c1c(F)cccc1F [Compound 58] | H (H shows more than 50% of control values) | H (H shows more than 50% of control values) | H (H shows more than 50% of control values) | H (H shows more than 50% of control values) | – | – | – | –
20 | Cn1c(-c2c(F)cccc2F)c(-c2ccccc2Br)ccc1=O [Compound 94] | H (H shows more than 50% of control values) | H (H shows more than 50% of control values) | H (H shows more than 50% of control values) | H (H shows more than 50% of control values) | – | – | – | –
